{"source": "FireProtDB (doi:10.1021/bi9927742)", "settings": "Homo sapiens, pH 6.6, DSC, GuHCl/ADA 0.7 M, reversible: yes"}
{"substance": "Fibroblast growth factor 1 wild type (chain not printed)", "values": [{"measurement": "unfolding free energy", "setting": "25 °C, GdnHCl", "result": 4.97, "unit": "kcal/mol"}, {"measurement": "unfolding enthalpy (calorimetric)", "setting": "Thermal", "result": 61.5, "unit": "kcal/mol"}]}
